Laboratory results from PubChem BioAssay AID686979 (National Center for Advancing Translational Sciences (NCATS), 2013).
Several values for one entry are separate records, joined by “and”; a condition that tells them apart may be missing. Identical values can stand only once. About 50,000 (12%) of roughly 420,000 compounds were called active. This list was built around the results that the source calls inconclusive (neither active nor inactive); the mix of calls is not that of the screen. Calls follow the shape of the dose curve; as a rule, active = well fitted inhibition curve with a large enough effect; inconclusive = small, poorly fitted or top-dose-only effect; inactive = flat fitted curve, though single readings scatter. Potencies of inconclusive entries are left out as doubtful fits.

Test: qHTS for Inhibitors of human tyrosyl-DNA phosphodiesterase 1 (TDP1): qHTS in cells in presence of CPT; also: nearly all actives have a fitted effect of over 55% in size
Conditions: chicken DT40 Tdp1-/-;hTDP1 cells + 20 nM CPT, ATP luminescence, 48 h; activity change, negative = growth inhibition: at 46.2 µM (top of the series) unless noted
Method in brief: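 Cell growth measured by CellTiter-Glo luminescence after a minimum 48 h, 37 C compound exposure with 20 nM CPT in Tdp1-knockout DT40 cells stably expressing hTDP1, seeded 400/well; qHTS titration format.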
% is scaled to controls: 0 for no effect and ±100 for the full control effect; potency is read from the fitted curve at half-maximal effect; tags tell the direction and shape of the fitted curve.

SMILES | Potency | activity change, negative = growth inhibition
O=C1NCN(c2ccccc2)C12CCN(C(c1nnnn1C1CCCCC1)C1CC1)CC2 (stereo unspecified) | inconclusive [inhibitor, single point] | –
N=c1sccn1Cc1ccc(Cl)cc1Cl | inconclusive [inhibitor, single point] | –
CCCCCc1nc2ccccc2c(=O)n1-c1ccc(C)cc1 | – | inactive: -24.9%
CCOc1ccc(/C=C/c2nc(C#N)c(NCc3ccccc3)o2)cc1 | inconclusive [inhibitor, full curve, poor fit] | –
NC(=O)c1cn(C2CCCCC2)c2ccccc2c1=O | inconclusive [inhibitor, partial curve] | –
Cc1ccc2c(c1)=C/C(=C\c1c(O)[nH]c(=O)[nH]c1=O)C(=O)N=2 | inconclusive [inhibitor, partial curve] | –
Cc1nc2ccc(Br)cc2c(=O)n1-c1ccc([N+](=O)[O-])c(C(F)(F)F)c1 | – | inconclusive: -31.2% [inhibitor]
COC(=O)C1=C(c2ccc(F)cc2OCc2ccccc2)C[C@@H]2CC[C@H]1N2C(=O)NCc1ccc(OC)cc1 | inconclusive [inhibitor, single point] | –
COC(=O)C1=C(c2ccc(F)cc2OCc2ccccc2)C[C@@H]2CC[C@H]1N2C(=O)NCCc1ccc(F)cc1 | inconclusive [inhibitor, single point] | –
CCOC(=O)C(NC(=O)CCl)(Nc1ccc(C(O)(C(=O)OCC)C(F)(F)F)cc1)C(F)(F)F (stereo unspecified) | inconclusive [inhibitor, single point] | –
CSCCC(c1nnnn1C1CCCC1)N1CCC(n2c(=O)[nH]c3ccccc32)CC1 (stereo unspecified) | inconclusive [inhibitor, single point] | –
Cn1c(=O)oc2cc(S(=O)(=O)N3CCc4ccccc43)ccc21 | inconclusive [inhibitor, single point] | –
NNc1n[nH]c(=S)n1N | inconclusive [inhibitor, partial curve, poor fit] | –
Cc1ccccc1-n1nc(C)c2c1NC(=O)CSC2c1ccc(N(C)C)cc1 (stereo unspecified) | inconclusive [inhibitor, single point] | –
CC[C@]1(C(=O)OC)[C@H]2C(=O)N(Cc3ccccc3)C(=O)[C@H]2[C@H]2CN=C(SCc3ccc(C#N)cc3)N21 | inconclusive [inhibitor, single point] | –
COC(=O)C1=C(c2ccc(-c3ccccc3)c(F)c2)C[C@@H]2CC[C@H]1N2C(=O)N1CCC(O)CC1 | active: 14.6 µM | –
COC(=O)C1=C(C)NC(C)=C(C(=O)O[C@H]2CCN(Cc3ccccc3)C2)[C@H]1c1cccc([N+](=O)[O-])c1 | inconclusive [inhibitor, single point] | –
CO[C@@H]1C=CC23c4cc5c(cc4CO[C@]2(O)CN(C)[C@H]3C1)OCO5 (stereo partly specified) | inconclusive [inhibitor, full curve, poor fit] | –
CS(=O)(=O)c1ccc(C2=C(CNC(=O)c3cccs3)[C@H]3CC[C@@H](C2)N3Cc2ccco2)cc1 | – | inactive: -4.28%
Cc1cc[n+](Cc2ccccc2)cc1 | inconclusive [inhibitor, partial curve] | –
Cc1ccc(-c2nc3ccccc3c(=O)n2-c2ccncc2)cc1 | – | inactive: -27.3%
CCC(NC(=O)OC(C)(C)C)C(=O)Oc1cc(C)cc2oc(=O)c3c(c12)CCC3 (stereo unspecified) | active: 20.6 µM | –

SMILES | Potency | activity change, negative = growth inhibition
Cc1ccc2n1Cc1cnnn1-c1ccccc1-2 | inconclusive [inhibitor, single point] | –
CC12CCC3C(CC=C4CC(O)CCC43C)C1C/C(=C\c1ccccc1F)C2=O (stereo unspecified) | inconclusive [inhibitor, single point] | –
Cc1ccc(-c2nnc(Nc3ccc(Br)cc3)c3ccccc23)cc1S(=O)(=O)NCc1nc2ccccc2[nH]1 | inconclusive [inhibitor, single point] | –
COC(=O)C1=C(c2ccc(F)cc2F)C[C@@H]2CC[C@H]1N2C(=O)N1CCOCC1 | inconclusive [inhibitor, single point] | –
C#CC(C)(O)CC (stereo unspecified) | – | inactive: 19%
Cc1cccc(C)c1-n1nnnc1C(C1CC1)N1CCC(n2c(=O)[nH]c3ccccc32)CC1 (stereo unspecified) | inconclusive [inhibitor, single point] | –
COc1ccc(C(CNC(=O)CCc2ccsc2)N(C)C)cc1 (stereo unspecified) | – | inactive: 7.58%
Cc1cccc(C(C)c2cnc[nH]2)c1C (stereo unspecified) | active: 26.6 µM | –
Clc1cccc(N2Cc3cc(-c4ccccc4)ccc3-n3nncc3C2)c1 | active: 2.59 µM | –
COc1cc(N2C(=O)CC(=O)NC2=O)cc(OC)c1OC | – | inactive: 16.1%
O=c1c2ccccc2nc(-c2ccc(Cl)cc2Cl)n1-c1ccncc1 | inconclusive [inhibitor, partial curve, poor fit] | –
CNCC[C@H](Oc1cccc2ccccc12)c1cccs1 | active: 8.91 µM and active: 16.8 µM and active: 16.4 µM | –
Cc1ccc(S(=O)(=O)c2nnn3c2nc(N2CCC(C(N)=O)CC2)c2cc(Cl)ccc23)cc1C | active: 20.6 µM | –
c1ccc(C(c2ccccc2)N2CCN(c3ccc4ccccc4n3)CC2)cc1 | inconclusive [inhibitor, single point] | –
O=C(c1ccc2c(c1)OCO2)C1CCCN(CC2CCCCC2)C1 (stereo unspecified) | inconclusive [inhibitor, single point] | –
CCCCN1C(=O)NC(=O)C2(Cc3cc(C)ccc3N(C)C2)C1=O (stereo unspecified) | – | inconclusive: -32.6% [inhibitor]
CCCc1nn(C)c2c1C(c1ccncc1)C(C#N)=C(N)O2 (stereo unspecified) | inconclusive [inhibitor, single point] | –
O=C(c1ccccc1)c1ccc(N=Nc2c(O)[nH]c(=O)[nH]c2=O)cc1 | inconclusive [inhibitor, single point] | –
COc1ccc(-n2nc(C(=O)NCC(=O)N3CCC4(CC3)OCCO4)c3ccccc3c2=O)c(OC)c1 | – | inactive: -12%
CCCCCn1c(=O)c(C(=O)Nc2ccccc2C)c(O)c2ccccc21 | – | inactive: 20.6%
COC(=O)C1=C(c2cc3ccccc3o2)C[C@@H]2CC[C@H]1N2C(=O)N1CCOCC1 | active: 3.66 µM | –
COc1cccc(-n2c(CN3CCOCC3)nc3ccc([N+](=O)[O-])cc3c2=O)c1 | – | inconclusive: -32.3% [inhibitor]

SMILES | Potency | activity change, negative = growth inhibition
COc1ccc(-c2nc3ccccc3c(=O)n2-c2nccs2)cc1 | inconclusive [inhibitor, partial curve] | –
C#C[C@]1(O)CCC2C3C(CC[C@@]21C)[C@@]1(C)CC[C@@H](O)CC1=C[C@H]3O (stereo partly specified) | inconclusive [inhibitor, partial curve] | –
Cc1cccc(OP(=O)(NCc2ccccc2)Oc2cccc(C)c2)c1 | inconclusive [inhibitor, single point] | –
CCC1CN2CCC1CC2C(O)c1ccnc2ccc(OC)cc12 (stereo unspecified) | inconclusive [inhibitor, single point] | –
COc1ccc(OCC(=O)N2CCN(Cc3c[nH]c4ccccc34)CC2)cc1 | active: 1.64 µM | –
COc1ccc(OC)c(NP(=O)(Oc2ccccc2)Oc2ccccc2)c1 | inconclusive [inhibitor, single point] | –
CCN1C[C@]2(CO)CC[C@H](OC)[C@@]34C2[C@H](OC)[C@@](O)(C13)[C@@]1(O)C[C@H](OC)[C@H]2C[C@@H]4[C@@H]1[C@H]2OC | – | inactive: 24.6%
COc1cc(N)c(Cl)cc1C(=O)NC1CN2CCC1CC2 (stereo unspecified) | – | inactive: -4.75%
COC(=O)C1=C(c2c(C)noc2C)C[C@@H]2CC[C@H]1N2C(=O)N1CCc2cc(OC)c(OC)cc2C1 | inconclusive [inhibitor, single point] | –
CCCC[N+]12CCC(CC1)C(=C(c1ccccc1)c1ccccc1)C2 | active: 4.61 µM | –
C[C@H](NC(=O)[C@@H](N)Cc1ccc(O)cc1)C(=O)NCC(=O)N(C)[C@@H](Cc1ccccc1)C(=O)N[C@H](CO)CCS(C)=O (stereo partly specified) | inconclusive [inhibitor, partial curve] | –
O=[N+]([O-])c1cccc(C2N3CCCN23)c1 (stereo unspecified) | – | inactive: -5.69%
COc1ccc(CCNC(=O)c2c(N)n(CCN3CCOCC3)c3nc4ccccc4nc23)cc1 | active: 20.6 µM | –
O=C1NC(=O)C(Cc2ccccc2)(Cc2ccccc2)C(=O)N1Cc1ccccc1 | active: 23.1 µM | –
COc1ccccc1NC(=O)c1oc2ccccc2c1NC(=O)c1ccccc1C(F)(F)F | active: 3.66 µM | –
CCCCn1c(O)c(C(C)=Nc2ccc3c(c2)CCC3)c(=O)[nH]c1=O | inconclusive [inhibitor, single point] | –
O=c1c2ccccc2nc(-c2ccccc2)n1-c1ccccc1O | inconclusive [inhibitor, single point] | –
COc1ccc(N2C(=O)NC(=O)/C(=C\c3ccc([N+](=O)[O-])s3)C2=O)cc1 | active: 13 µM | –
Cc1ccc(C2=NCC(=O)N(CC(=O)N3CCCCC3)c3sc(C)c(C)c32)cc1 | inconclusive [inhibitor, single point] | –
COc1ccc(CCNC(C)CCc2ccc(OC)cc2)cc1 (stereo unspecified) | inconclusive [inhibitor, single point] | –
COC1CC(C)C(OC)c2cc(O)cc(c2O)NC(=O)C(C)=CC=CC(C)C(OC(N)=O)C(C)=CC(C)C1OC (stereo unspecified) | active: 0.092 µM | –
COc1ccc(S(=O)(=O)Cc2ccc(C(=O)N3CCC4(CC3)OCCO4)o2)cc1 | – | inactive: -9.24%
